According to the supplement of paper PMC12067093, “Discovery and optimisation of a covalent ligand for TRIM25 and its application to targeted protein ubiquitination” (Chemical Science, 2025):
The full data set covers some 21,000 targets. This sample favours those with the largest changes.

Compound: Cc1cc(ccc1-c1ccccc1)C(=O)N1CCCN(CC1)C(=O)CCl [compound 10]
Test: probe-labelled cysteine peptide fold change vs DMSO (competition) (log2 fold change); higher = less target engagement (more negative = stronger competition)
Details: THP-1, incubation time: 4 h
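Note: competitive profiling in live THP-1 cells: cysteine peptides tagged with an iodoacetamide desthiobiotin (IA-DTB) probe, intensity after compound treatment relative to DMSO-treated cells.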

Chain of UniProt Q96EM0 (Q96EM0 whole entry, looked up): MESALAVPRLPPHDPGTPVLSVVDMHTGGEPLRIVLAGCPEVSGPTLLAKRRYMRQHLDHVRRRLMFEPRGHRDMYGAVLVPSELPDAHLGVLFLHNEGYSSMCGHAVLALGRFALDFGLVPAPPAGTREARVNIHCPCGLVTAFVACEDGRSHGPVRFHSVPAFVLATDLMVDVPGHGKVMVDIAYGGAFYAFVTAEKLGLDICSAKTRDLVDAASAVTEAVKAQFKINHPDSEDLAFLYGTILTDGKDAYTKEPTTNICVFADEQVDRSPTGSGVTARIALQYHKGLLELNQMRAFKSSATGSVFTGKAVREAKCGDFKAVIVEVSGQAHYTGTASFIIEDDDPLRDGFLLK
Chain of UniProt O15037 (O15037 whole entry, looked up): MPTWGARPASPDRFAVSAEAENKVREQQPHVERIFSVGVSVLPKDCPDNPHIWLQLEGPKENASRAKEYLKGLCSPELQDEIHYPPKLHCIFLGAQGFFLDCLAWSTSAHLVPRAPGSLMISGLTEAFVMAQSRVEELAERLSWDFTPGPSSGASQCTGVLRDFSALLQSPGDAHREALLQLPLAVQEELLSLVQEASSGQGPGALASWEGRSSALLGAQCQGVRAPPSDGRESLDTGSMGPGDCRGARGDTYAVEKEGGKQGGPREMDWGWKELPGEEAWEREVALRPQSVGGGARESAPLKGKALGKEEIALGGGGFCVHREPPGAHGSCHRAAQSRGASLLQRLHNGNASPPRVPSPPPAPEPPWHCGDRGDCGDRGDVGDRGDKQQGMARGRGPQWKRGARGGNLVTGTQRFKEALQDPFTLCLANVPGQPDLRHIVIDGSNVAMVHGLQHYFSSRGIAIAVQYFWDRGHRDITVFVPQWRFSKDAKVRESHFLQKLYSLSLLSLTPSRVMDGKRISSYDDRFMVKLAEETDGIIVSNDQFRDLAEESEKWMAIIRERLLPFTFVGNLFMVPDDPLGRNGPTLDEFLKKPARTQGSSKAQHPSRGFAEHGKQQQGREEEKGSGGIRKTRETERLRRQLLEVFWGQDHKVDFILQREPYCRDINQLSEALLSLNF
Chain of UniProt P26010 (P26010 whole entry, looked up): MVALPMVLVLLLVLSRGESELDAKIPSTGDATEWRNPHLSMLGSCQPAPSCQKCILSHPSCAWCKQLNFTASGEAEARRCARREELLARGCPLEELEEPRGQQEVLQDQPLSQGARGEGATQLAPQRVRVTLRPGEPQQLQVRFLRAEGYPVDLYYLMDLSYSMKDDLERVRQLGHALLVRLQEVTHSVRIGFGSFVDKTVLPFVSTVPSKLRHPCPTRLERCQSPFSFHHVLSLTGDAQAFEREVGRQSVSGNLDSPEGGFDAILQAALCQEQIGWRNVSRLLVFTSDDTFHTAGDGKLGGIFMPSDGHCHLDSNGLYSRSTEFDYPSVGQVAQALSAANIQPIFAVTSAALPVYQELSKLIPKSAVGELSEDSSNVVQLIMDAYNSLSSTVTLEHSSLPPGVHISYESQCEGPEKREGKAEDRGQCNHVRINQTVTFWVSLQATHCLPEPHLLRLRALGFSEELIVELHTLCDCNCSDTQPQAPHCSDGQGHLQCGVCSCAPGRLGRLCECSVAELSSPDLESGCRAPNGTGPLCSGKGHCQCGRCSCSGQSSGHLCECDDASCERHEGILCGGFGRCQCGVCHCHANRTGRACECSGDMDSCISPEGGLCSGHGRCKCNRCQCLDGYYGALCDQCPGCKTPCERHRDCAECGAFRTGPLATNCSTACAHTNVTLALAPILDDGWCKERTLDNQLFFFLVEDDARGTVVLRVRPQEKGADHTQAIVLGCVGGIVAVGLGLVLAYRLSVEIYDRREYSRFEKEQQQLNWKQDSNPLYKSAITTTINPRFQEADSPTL
Chain of UniProt P35475 (P35475 whole entry, looked up): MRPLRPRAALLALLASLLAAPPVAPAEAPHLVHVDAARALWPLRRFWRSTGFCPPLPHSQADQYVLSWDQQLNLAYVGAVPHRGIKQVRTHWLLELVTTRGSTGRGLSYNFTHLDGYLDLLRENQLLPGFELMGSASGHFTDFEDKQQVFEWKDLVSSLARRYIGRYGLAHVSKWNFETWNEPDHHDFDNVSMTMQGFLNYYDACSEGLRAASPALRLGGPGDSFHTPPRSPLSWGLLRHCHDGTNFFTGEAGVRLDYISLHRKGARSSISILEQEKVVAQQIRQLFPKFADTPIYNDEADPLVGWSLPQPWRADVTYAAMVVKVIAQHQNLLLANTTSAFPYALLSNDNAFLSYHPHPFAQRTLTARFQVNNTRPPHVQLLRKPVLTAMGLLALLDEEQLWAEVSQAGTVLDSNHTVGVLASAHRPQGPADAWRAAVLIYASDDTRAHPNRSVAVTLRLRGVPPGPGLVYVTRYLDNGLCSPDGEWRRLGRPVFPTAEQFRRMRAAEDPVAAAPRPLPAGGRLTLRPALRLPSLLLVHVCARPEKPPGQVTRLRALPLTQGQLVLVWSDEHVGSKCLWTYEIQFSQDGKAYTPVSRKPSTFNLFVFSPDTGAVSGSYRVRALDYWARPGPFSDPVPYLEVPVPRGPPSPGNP
Chain of UniProt Q9BW19 (Q9BW19 whole entry, looked up): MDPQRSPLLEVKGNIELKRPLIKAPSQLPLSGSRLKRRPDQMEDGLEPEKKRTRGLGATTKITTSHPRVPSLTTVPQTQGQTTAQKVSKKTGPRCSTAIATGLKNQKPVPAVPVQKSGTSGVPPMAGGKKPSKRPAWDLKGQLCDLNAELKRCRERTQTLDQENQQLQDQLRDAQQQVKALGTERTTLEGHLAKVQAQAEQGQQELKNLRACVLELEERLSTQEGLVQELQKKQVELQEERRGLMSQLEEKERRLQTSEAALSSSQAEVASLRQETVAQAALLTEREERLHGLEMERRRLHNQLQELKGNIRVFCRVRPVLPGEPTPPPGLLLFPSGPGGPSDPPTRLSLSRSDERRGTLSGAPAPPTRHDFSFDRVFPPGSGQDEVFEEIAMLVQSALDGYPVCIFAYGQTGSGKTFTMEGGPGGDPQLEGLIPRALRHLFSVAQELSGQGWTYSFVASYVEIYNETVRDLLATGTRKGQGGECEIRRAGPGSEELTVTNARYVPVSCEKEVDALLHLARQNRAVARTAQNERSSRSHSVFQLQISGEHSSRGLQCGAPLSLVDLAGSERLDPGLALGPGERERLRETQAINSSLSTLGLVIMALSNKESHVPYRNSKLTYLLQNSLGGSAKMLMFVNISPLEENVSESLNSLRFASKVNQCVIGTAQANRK
Chain of UniProt Q92835 (Q92835 whole entry, looked up): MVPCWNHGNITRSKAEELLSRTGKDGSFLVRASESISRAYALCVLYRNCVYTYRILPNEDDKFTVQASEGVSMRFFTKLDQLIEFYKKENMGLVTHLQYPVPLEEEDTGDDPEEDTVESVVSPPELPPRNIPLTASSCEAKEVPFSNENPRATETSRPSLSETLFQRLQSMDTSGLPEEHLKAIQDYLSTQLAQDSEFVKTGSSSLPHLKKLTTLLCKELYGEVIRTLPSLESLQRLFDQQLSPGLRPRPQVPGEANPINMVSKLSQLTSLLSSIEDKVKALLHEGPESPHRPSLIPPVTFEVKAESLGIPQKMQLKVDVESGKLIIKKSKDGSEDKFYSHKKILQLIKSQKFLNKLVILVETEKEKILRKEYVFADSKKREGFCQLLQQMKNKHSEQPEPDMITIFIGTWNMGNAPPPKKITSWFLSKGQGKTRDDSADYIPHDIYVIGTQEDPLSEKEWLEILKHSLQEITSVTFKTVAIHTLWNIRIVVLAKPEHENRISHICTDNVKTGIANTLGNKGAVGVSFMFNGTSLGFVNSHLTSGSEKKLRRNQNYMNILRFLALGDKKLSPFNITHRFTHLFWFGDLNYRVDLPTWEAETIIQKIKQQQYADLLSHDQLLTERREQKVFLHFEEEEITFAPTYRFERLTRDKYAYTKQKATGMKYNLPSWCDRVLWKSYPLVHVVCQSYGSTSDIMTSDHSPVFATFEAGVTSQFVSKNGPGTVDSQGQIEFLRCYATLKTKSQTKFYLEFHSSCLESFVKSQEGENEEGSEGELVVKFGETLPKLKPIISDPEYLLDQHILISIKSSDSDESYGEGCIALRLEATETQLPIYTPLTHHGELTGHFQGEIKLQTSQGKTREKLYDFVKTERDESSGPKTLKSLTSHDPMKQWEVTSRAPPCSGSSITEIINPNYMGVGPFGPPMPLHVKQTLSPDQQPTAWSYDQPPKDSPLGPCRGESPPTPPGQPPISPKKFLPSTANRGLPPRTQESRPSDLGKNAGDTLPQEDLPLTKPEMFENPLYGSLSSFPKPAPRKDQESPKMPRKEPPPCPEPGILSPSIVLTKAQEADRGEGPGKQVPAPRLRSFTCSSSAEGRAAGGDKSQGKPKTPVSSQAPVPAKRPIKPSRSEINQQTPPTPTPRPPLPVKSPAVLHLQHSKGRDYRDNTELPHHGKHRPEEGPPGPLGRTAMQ
Chain of UniProt O94819 (O94819 whole entry, looked up): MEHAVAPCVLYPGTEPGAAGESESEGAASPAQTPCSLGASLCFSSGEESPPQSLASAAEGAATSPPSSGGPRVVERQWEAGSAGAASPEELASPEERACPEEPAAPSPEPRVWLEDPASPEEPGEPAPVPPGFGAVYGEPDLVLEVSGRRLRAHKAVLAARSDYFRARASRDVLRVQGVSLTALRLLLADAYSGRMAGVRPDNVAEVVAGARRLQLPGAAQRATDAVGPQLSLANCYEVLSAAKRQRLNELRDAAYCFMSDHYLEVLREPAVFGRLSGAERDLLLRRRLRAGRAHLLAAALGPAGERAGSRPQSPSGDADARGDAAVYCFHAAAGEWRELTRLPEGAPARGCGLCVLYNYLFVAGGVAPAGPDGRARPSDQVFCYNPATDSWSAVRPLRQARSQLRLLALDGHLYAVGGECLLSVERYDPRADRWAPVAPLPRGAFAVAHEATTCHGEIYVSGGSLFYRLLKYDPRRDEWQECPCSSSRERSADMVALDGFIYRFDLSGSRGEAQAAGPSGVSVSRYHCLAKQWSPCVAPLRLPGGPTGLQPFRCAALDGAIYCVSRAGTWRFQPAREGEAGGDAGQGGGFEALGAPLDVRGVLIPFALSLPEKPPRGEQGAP

Target	probe-labelled cysteine peptide fold change (10 µM)	probe-labelled cysteine peptide fold change (50 µM)
ILVBL_A1L0T0_608_VLHDAQQQCR (UniProt A1L0T0)	0.0577	0.154
KDM2A_Q9Y2K7_429_TLAGDSSSDCSR (UniProt Q9Y2K7)	-0.335	-0.285
HSPA9_P38646_608_VEAVNMAEGIIHDTETKMEEFKDQLPADECNK (UniProt P38646)	-0.551	-1.79
KIFC1_Q9BW19_95_CSTAIATGLK (UniProt Q9BW19)	-0.0276	-0.161
HNRNPA1_P09651_43_SHFEQWGTLTDCVVMRDPNTK (UniProt P09651)	-0.0523	-0.0445
HUWE1_Q7Z6Z7_2106_EDCSVLAFVLDHLLPHTQNAEDKDTPALAR (UniProt Q7Z6Z7)	0.166	0.176
HMOX2_P30519_282_GALEGSSCPFR (UniProt P30519)	-2.29	-1.83
IGF2R_P11717_275+288_EEAGKLDFCDGHSPAVTITFVCPSER (UniProt P11717)	-0.114	-0.241
IKBKG_Q9Y6K9_396_RSPPEEPPDFCCPK (UniProt Q9Y6K9)	0.158	0.168
HUWE1_Q7Z6Z7_2721_ENRDQSAQCTASK (UniProt Q7Z6Z7)	-0.519	-1.1
KIAA0391_O15091_469+493_QASCFFADDISEDDPFLLYATLHSGNHCR (UniProt O15091)	0.0905	-0.0707
INPP5D_Q92835_385_EGFCQLLQQMK (UniProt Q92835)	-0.236	0.0285
HTATIP2_Q9BUP3_91_NVNQEVVDFEKLDDYASAFQGHDVGFCCLGTTR (UniProt Q9BUP3)	-0.0888	-0.569
IGF2R_P11717_538_GCPEDAAVCAVDK (UniProt P11717)	-0.117	0.048
IFRD2_Q12894_409_AVLHSVEGGECEEEIVR (UniProt Q12894)	0.157	0.456
ITPR2_Q14571_1299_VVQHFVHCIETHGR<|>ITPR1_Q14643_1308_VVQHFVHCIETHGR (UniProt Q14643+Q14571)	0.327	0.26
KHNYN_O15037_221_SSALLGAQCQGVR (UniProt O15037)	-0.233	-0.449
JMJD1C_Q15652_2163_LYSDIPHSWICEK (UniProt Q15652)	-0.133	-0.539
IDUA_P35475_481_YLDNGLCSPDGEWR (UniProt P35475)	-0.0927	0.123
KBTBD11_O94819_384_ARPSDQVFCYNPATDSWSAVRPLR (UniProt O94819)	0.0739	-0.0268
L2HGDH_Q9H9P8_187_GLMAIDCPHTGIVDYR (UniProt Q9H9P8)	0.00491	-0.175

Target	probe-labelled cysteine peptide fold change (10 µM)	probe-labelled cysteine peptide fold change (50 µM)
KIF2C_Q99661_344_ATCFAYGQTGSGK (UniProt Q99661)	0.145	0.0641
KPNA4_O00629_417_DQVAYLIQQNVIPPFCNLLTVK (UniProt O00629)	0.479	0.345
KIF23_Q02241_165_NSMDIQCEVDALLER (UniProt Q02241)	-0.11	-0.245
L3HYPDH_Q96EM0_148_VNIHCPCGLVTAFVACEDGR (UniProt Q96EM0)	-0.365	-1.45
KAT8_Q9H7Z6_416_GQHVICVTPK (UniProt Q9H7Z6)	0.233	0.0955
LACTB_P83111_154_EVWSEGLGYADVENRVPCKPETVMR (UniProt P83111)	0.129	0.0699
IMPDH2_P12268_140_HGFCGIPITDTGR (UniProt P12268)	0.185	0.0285
HNRNPUL2_Q1KMD3_538_RNFILDQCNVYNSGQR (UniProt Q1KMD3)	-0.0524	0.251
HUWE1_Q7Z6Z7_3658_AQCETLSPDGLPEEQPQTTK (UniProt Q7Z6Z7)	-0.312	-0.32
ITGB7_P26010_91_GCPLEELEEPR (UniProt P26010)	-0.127	0.134
KNL1_Q8NG31_638_SSSDECEEITK (UniProt Q8NG31)	-0.158	-0.325
INPPL1_O15357_926_KPAFTEASCPLSR (UniProt O15357)	-0.388	-1.32
ILKAP_Q9H0C8_325_FILLACDGLFK (UniProt Q9H0C8)	0.00748	-0.207
IP6K1_Q92551_221_YPCVLDLK (UniProt Q92551)	-0.171	-0.00183
IPO13_O94829_951_EFTLLCR (UniProt O94829)	0.0897	0.281
KLHL6_Q8WZ60_252_LCLLPYVLENVR (UniProt Q8WZ60)	0.216	0.0667
ITGAM_P11215_123_GLCFLFGSNLR (UniProt P11215)	0.0447	0.155
LARP1_Q6PKG0_238_NGDEDCQR (UniProt Q6PKG0)	1.03	-0.18
IQGAP2_Q13576_1183_EACNVPEPEEK (UniProt Q13576)	0.136	0.212
HSPBP1_Q9NZL4_310_ECREPELGLEELLR (UniProt Q9NZL4)	-0.105	0.0852
